# This is one part of the list. The main result of the screen is listed elsewhere. These columns were measured beside it and carry no call.
# Test: cell-free HIV fusion peptide-binding blockers – biochemical, uHTS, fluorescence dequenching, primary screen (AID 1986)
# Conditions: 30 min, measured here: repeat confirmation average inhibition, at 18.6 µM, stronger effect = higher value
row,SMILES,inhibition
1,CS(=O)(=O)C1=NSC2=NC(=O)/C(=C\c3ccc(OC(=O)c4ccco4)c(Br)c3)C(=N)N21,80%
2,CC(C)(C)c1ccc2c(c1)OC(C(=O)N/N=C\c1ccc(-c3cccc(C(=O)O)c3)o1)CO2 (configuration not stated),73.5%
3,CCOc1cc(/C=C2/C(=N)N3C(=NC2=O)SN=C3S(=O)(=O)CC)ccc1OC(=O)c1ccco1,56.2%
4,CCCOc1ccc(C2C(C(=O)c3cc4ccccc4o3)=C(O)C(=O)N2c2cc(C)on2)cc1 (configuration not stated),59%
5,COc1ccc(C(=O)Nc2ccc(/C(C)=N/NC(=O)c3ccncc3)cc2)cc1,76.9%
6,COc1cc(/C=C2\C(=N)N3N=C(S(C)(=O)=O)SC3=NC2=O)ccc1OCCOc1ccccc1C,75.2%
7,COc1cc(/C=C2\C(=N)N3N=C(S(C)(=O)=O)SC3=NC2=O)ccc1OS(=O)(=O)c1ccccc1,67.1%
8,Cc1c(CC(=O)O)c(=O)oc2c(C)c3occ(-c4ccc(Br)cc4)c3cc12,57.8%
9,CCCCCCc1c(C)c2ccc(OCC(=O)N[C@@H](Cc3ccccc3)C(=O)O)cc2oc1=O,52.6%
10,CC(c1ccccc1)N1C(=O)c2ccc(C(=O)Nc3ccccc3C(=O)O)cc2C1=O (configuration not stated),50.5%
11,Cc1cccc(S(=O)(=O)Nc2nc3ccccc3nc2Nc2cccc(C(=O)O)c2)c1,50.3%
12,CC(c1ccccc1)N1C(=O)c2ccc(C(=O)Nc3ccc(Br)cc3C(=O)O)cc2C1=O (configuration not stated),77.7%
13,Cc1ccc(S(=O)(=O)Oc2ccc(/C=C3/C(=N)N4C(=NC3=O)SN=C4S(C)(=O)=O)cc2)cc1,86.2%
14,O=C(Nc1ccc(C(=O)O)cc1)/C(=C\C=C\c1ccccc1)NC(=O)c1cccc(Br)c1,61%
15,CCOc1cc(/C=C2\C(=O)N(c3cccc(C(=O)O)c3)N=C2C(F)(F)F)ccc1OCC(=O)Nc1ccccc1OC,88.3%
16,Cc1ccc(S(=O)(=O)Oc2ccc(/C=C3\C(=N)N4N=C(S(C)(=O)=O)SC4=NC3=O)cc2)cc1,69%
17,CC(C)(C)CC(C)(C)c1ccc(OCC(=O)N/N=C/c2ccc(S(=O)(=O)O)o2)cc1,56.3%
18,CCc1nnc(NS(=O)(=O)c2ccc(N/C=C(\C=O)c3nc4cc(Cl)ccc4o3)cc2)s1,54.5%
19,O=C(O)c1cc(NC(=O)c2ccc(Br)cc2)cc(NC(=O)c2ccc(Br)cc2)c1,53.9%
20,CCOC(=O)C1=C(C)N=c2s/c(=C\c3ccc(OCC(=O)O)c(OC)c3)c(=O)n2C1c1ccc(OC)cc1 (configuration not stated),60%
21,COc1cc(/C=C2/C(=N)N3C(=NC2=O)SN=C3S(C)(=O)=O)ccc1OS(=O)(=O)c1ccccc1,65.8%

row,SMILES,inhibition
1,O=C(O)Cn1cc(/C=c2/sc3nc4ccccc4n3c2=O)c2ccccc21,60.7%
2,Cc1ccccc1N/N=C/c1sc(=O)n(Cc2cccc(C(=O)O)c2)c1Cl,69.7%
3,Cc1cc(C)cc(-n2cccc2/C=C2/C(=N)N3C(=NC2=O)SN=C3S(C)(=O)=O)c1,70.3%
4,COc1cc(/C=C2/C(=O)NN(c3ccc(Cl)cc3)C2=O)cc(Br)c1O,52%
5,Cc1cc(N2C(=O)C(O)=C(C(=O)c3cc4ccccc4o3)C2c2cccc(Br)c2)no1 (configuration not stated),70.1%
6,COC(=O)c1sc(-c2ccc(C(C)(C)C)cc2)cc1NC(=O)COCC(=O)O,52.9%
7,COc1cc(/C=N/Nc2ccc(Cl)c(C(=O)O)c2)ccc1OC(=O)c1ccc(F)cc1,54.1%
8,CCOc1cc(/C=C2/C(=N)N3C(=NC2=O)SN=C3S(C)(=O)=O)ccc1OS(=O)(=O)c1ccccc1,81.7%
9,COc1cc(/C=C2\C(=N)N3N=C(S(C)(=O)=O)SC3=NC2=O)ccc1OC(=O)c1cccs1,83%
10,Cc1cc(N2C(=O)C(O)=C(C(=O)c3cc4ccccc4o3)C2c2ccc(Cl)cc2)no1 (configuration not stated),64.6%
11,O=C(Nc1ccc(-c2nc3ccccc3[nH]2)cc1)c1ccccc1NS(=O)(=O)c1ccc(F)cc1,58.6%
12,COc1cc(NS(=O)(=O)c2ccc(NC(=S)NC(=O)c3sc4ccccc4c3Cl)cc2)nc(OC)n1,70.3%
13,O=C(COc1ccc(Cl)cc1)Nc1cc(NC(=O)COc2ccc(Cl)cc2)cc(C(=O)O)c1,59.3%
14,CCOC(=O)c1sc(N2C(=O)C(O)=C(C(=O)c3ccc(C)o3)C2c2cccc([N+](=O)[O-])c2)nc1C (configuration not stated),54.5%
15,CCS(=O)(=O)C1=NN2C(=N)/C(=C\c3ccc(OS(=O)(=O)c4ccccc4)c(OC)c3)C(=O)N=C2S1,67.5%
16,O=C(NN1C(=O)/C(=C/c2ccc(O)cc2)SC1=S)c1ccccc1O,51.8%
17,COc1cc(/C=C2\C(=N)N3N=C(S(C)(=O)=O)SC3=NC2=O)cc(OC)c1OCCOc1ccc(C)cc1,86.3%
18,COc1cccc(C2C3=C(N=c4s/c(=C\c5ccc(OCC(=O)O)cc5)c(=O)n42)c2ccccc2CC3)c1 (configuration not stated),70.3%
19,O=C(O)COc1ccccc1/C=N/NC(=O)CSc1nnc(SCc2cccc3ccccc23)s1,59.2%
20,O=C1NN(c2ccc(F)c(Cl)c2)C(=O)/C1=C\c1cccc(OC(=O)c2cccs2)c1,87.3%
21,COc1cc(/C=C2\C(=N)N3N=C(S(C)(=O)=O)SC3=NC2=O)cc(OC)c1OCCOc1cccc(C)c1,86%

# — PubChem BioAssay AID1986 (Sanford-Burnham Center for Chemical Genomics, 2009)
